# In the supplement of paper PMC8728848:
# The other results are listed elsewhere or left out.
# B1: Als3-2 (Candida albicans) (protein)
# chain: KTITGVFNSFNSLTWSNAATYNYKGPGTPTWNAVLGWSLDGTSASPGDTFTLNMPCVFKFTTSQTSVDLTAHGVKYATCQFQAGEEFMTFSTLTCTVSNTLTPSIKALGTVTLPLAFNVGGTGSSVDLEDSKCFTAGTNTVTFNDGGKKISINVDFERSNVDPKGYLTD
# What was measured:
# Assay in all cases: glycan array binding signal (z-score within array); higher = stronger binding
# Conditions in all cases: glycan notation: IUPAC condensed, linker removed
# Fuc(a1-3)GlcNAc = target: Fuc(a1-3)GlcNAc
# Outline: (§1)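 Arrays were curated from the Consortium for Functional Glycomics database, 3228 in total, and kept only where the protein sequence was available. Binding is expressed as a within-array Z-score. This score was averaged across arrays of the same protein sequence at different concentrations or buffers and across linkers, and negative values can be read as non-binding.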
# [1] = target: Fuc(a1-3)[Gal(b1-4)]Glc6S
# Outline: as §1
# [2] = target: Fuc(a1-3)[Gal(b1-4)]GlcNAc
# Outline: as §1
# [3] = target: Fuc(a1-3)[Gal(b1-4)]GlcNAc(b1-2)Man
# Outline: as §1
# [4] = target: Fuc(a1-3)[Gal(b1-4)]GlcNAc(b1-2)Man(a1-3)[Fuc(a1-3)[Gal(b1-4)]GlcNAc(b1-2)Man(a1-6)]Man(b1-4)GlcNAc(b1-4)GlcNAc
# Outline: as §1
# [5] = target: Fuc(a1-3)[Gal(b1-4)]GlcNAc(b1-2)Man(a1-3)[Fuc(a1-3)[Gal(b1-4)]GlcNAc(b1-2)Man(a1-6)]Man(b1-4)GlcNAc(b1-4)[Fuc(a1-6)]GlcNAc
# Outline: as §1
# [6] = target: Fuc(a1-3)[Gal(b1-4)]GlcNAc(b1-3)Gal(b1-3)[Fuc(a1-4)]GlcNAc
# Outline: as §1
# [7] = target: Fuc(a1-3)[Gal(b1-4)]GlcNAc(b1-3)Gal(b1-4)[Fuc(a1-3)]GlcNAc
# Outline: as §1
# [8] = target: Fuc(a1-3)[Gal(b1-4)]GlcNAc(b1-3)Gal(b1-4)[Fuc(a1-3)]GlcNAc(b1-3)Gal(b1-4)[Fuc(a1-3)]GlcNAc
# Outline: as §1
# [9] = target: Fuc(a1-3)[Gal(b1-4)]GlcNAc(b1-3)GalNAc
# Outline: as §1
# [10] = target: Fuc(a1-3)[Gal(b1-4)]GlcNAc(b1-6)GalNAc
# Outline: as §1
# [11] = target: Fuc(a1-3)[Gal(b1-4)]GlcNAc(b1-6)[Gal(b1-3)GlcNAc(b1-3)]Gal(b1-4)Glc
# Outline: as §1
# [12] = target: Fuc(a1-3)[Gal(b1-4)]GlcNAc6S
# Outline: as §1
# [13] = target: Fuc(a1-3)[Gal3S(b1-4)]Glc
# Outline: as §1
# [14] = target: Fuc(a1-3)[Gal3S(b1-4)]GlcNAc
# Outline: as §1
# [15] = target: Fuc(a1-3)[Gal3S(b1-4)]GlcNAc6S
# Outline: as §1
# [16] = target: Fuc(a1-3)[GalNAc(b1-4)]GlcNAc
# Outline: as §1
# [17] = target: Fuc(a1-3)[GalNAc(b1-4)]GlcNAc6S
# Outline: as §1
# Fuc(a1-4)GlcNAc = target: Fuc(a1-4)GlcNAc
# Outline: as §1
# Fuc(b1-3)GlcNAc = target: Fuc(b1-3)GlcNAc
# Outline: as §1
# Gal(a1-2)Gal = target: Gal(a1-2)Gal
# Outline: as §1
# Gal(a1-3)Gal = target: Gal(a1-3)Gal
# Outline: as §1
# Gal(a1-3)Gal(b1-3)GlcNAc = target: Gal(a1-3)Gal(b1-3)GlcNAc
# Outline: as §1
# [18] = target: Gal(a1-3)Gal(b1-3)GlcNAc(b1-2)Man
# Outline: as §1
# [19] = target: Gal(a1-3)Gal(b1-3)GlcNAc(b1-2)Man(a1-3)[Gal(a1-3)Gal(b1-3)GlcNAc(b1-2)Man(a1-6)]Man(b1-4)GlcNAc(b1-4)GlcNAc
# Outline: as §1
# [20] = target: Gal(a1-3)Gal(b1-3)GlcNAc(b1-3)GalNAc
# Outline: as §1
# [21] = target: Gal(a1-3)Gal(b1-3)GlcNAc(b1-6)GalNAc
# Outline: as §1
# [22] = target: Gal(a1-3)Gal(b1-3)[Fuc(a1-4)]GlcNAc(b1-2)Man(a1-3)[Gal(a1-3)Gal(b1-3)[Fuc(a1-4)]GlcNAc(b1-2)Man(a1-6)]Man(b1-4)GlcNAc(b1-4)GlcNAc
# Outline: as §1
# Gal(a1-3)Gal(b1-4)Glc = target: Gal(a1-3)Gal(b1-4)Glc
# Outline: as §1
# Gal(a1-3)Gal(b1-4)GlcNAc = target: Gal(a1-3)Gal(b1-4)GlcNAc
# Outline: as §1
# [23] = target: Gal(a1-3)Gal(b1-4)GlcNAc(b1-2)Man
# Outline: as §1
# [24] = target: Gal(a1-3)Gal(b1-4)GlcNAc(b1-2)Man(a1-3)[Gal(a1-3)Gal(b1-4)GlcNAc(b1-2)Man(a1-6)]Man(b1-4)GlcNAc(b1-4)GlcNAc
# Outline: as §1
# [25] = target: Gal(a1-3)Gal(b1-4)GlcNAc(b1-3)GalNAc
# Outline: as §1
# [26] = target: Gal(a1-3)Gal(b1-4)GlcNAc(b1-6)GalNAc
# Outline: as §1
# [27] = target: Gal(a1-3)Gal(b1-4)[Fuc(a1-3)]GlcNAc
# Outline: as §1
# [28] = target: Gal(a1-3)Gal(b1-4)[Fuc(a1-3)]GlcNAc(b1-2)Man(a1-3)[Gal(a1-3)Gal(b1-4)[Fuc(a1-3)]GlcNAc(b1-2)Man(a1-6)]Man(b1-4)GlcNAc(b1-4)GlcNAc
# Outline: as §1
# Gal(a1-3)GalNAc = target: Gal(a1-3)GalNAc
# Outline: as §1
# [29] = target: Gal(a1-3)[Gal(a1-4)]Gal(b1-4)GlcNAc
# Outline: as §1
# [30] = target: Gal(a1-4)Gal(b1-3)GlcNAc(b1-2)Man(a1-3)[Gal(a1-4)Gal(b1-3)GlcNAc(b1-2)Man(a1-6)]Man(b1-4)GlcNAc(b1-4)GlcNAc
# Outline: as §1
# Gal(a1-4)Gal(b1-4)Glc = target: Gal(a1-4)Gal(b1-4)Glc
# Outline: as §1
# Gal(a1-4)Gal(b1-4)GlcNAc = target: Gal(a1-4)Gal(b1-4)GlcNAc
# Outline: as §1
# [31] = target: Gal(a1-4)Gal(b1-4)GlcNAc(b1-2)Man(a1-3)[Gal(a1-4)Gal(b1-4)GlcNAc(b1-2)Man(a1-6)]Man(b1-4)GlcNAc(b1-4)GlcNAc
# Outline: as §1
# [32] = target: Gal(a1-4)Gal(b1-4)GlcNAc(b1-3)Gal(b1-4)Glc
# Outline: as §1
# Gal(a1-4)GlcNAc = target: Gal(a1-4)GlcNAc
# Outline: as §1
# Gal(a1-6)Glc = target: Gal(a1-6)Glc
# Outline: as §1
binder,measurement,setting,value
B1,glycan array binding signal (z-score),Fuc(a1-3)GlcNAc,-0.39
same,glycan array binding signal (z-score),[1],0.576
same,glycan array binding signal (z-score),[2],-0.269
same,glycan array binding signal (z-score),[3],-0.549
same,glycan array binding signal (z-score),[4],0.525
same,glycan array binding signal (z-score),[5],-0.462
same,glycan array binding signal (z-score),[6],3.23
same,glycan array binding signal (z-score),[7],-0.091
same,glycan array binding signal (z-score),[8],-0.374
same,glycan array binding signal (z-score),[9],-0.173
same,glycan array binding signal (z-score),[10],-0.391
same,glycan array binding signal (z-score),[11],-0.313
same,glycan array binding signal (z-score),[12],2.13
same,glycan array binding signal (z-score),[13],-0.64
same,glycan array binding signal (z-score),[14],0.84
same,glycan array binding signal (z-score),[15],0.07
same,glycan array binding signal (z-score),[16],0.467
same,glycan array binding signal (z-score),[17],0.076
same,glycan array binding signal (z-score),Fuc(a1-4)GlcNAc,-0.199
same,glycan array binding signal (z-score),Fuc(b1-3)GlcNAc,-0.35
same,glycan array binding signal (z-score),Gal(a1-2)Gal,-0.51
same,glycan array binding signal (z-score),Gal(a1-3)Gal,-0.231
same,glycan array binding signal (z-score),Gal(a1-3)Gal(b1-3)GlcNAc,-0.231
same,glycan array binding signal (z-score),[18],-0.393
same,glycan array binding signal (z-score),[19],-0.235
same,glycan array binding signal (z-score),[20],-0.439
same,glycan array binding signal (z-score),[21],-0.379
same,glycan array binding signal (z-score),[22],-0.074
same,glycan array binding signal (z-score),Gal(a1-3)Gal(b1-4)Glc,-0.649
same,glycan array binding signal (z-score),Gal(a1-3)Gal(b1-4)GlcNAc,-0.638
same,glycan array binding signal (z-score),[23],-0.476
same,glycan array binding signal (z-score),[24],-0.31
same,glycan array binding signal (z-score),[25],0.715
same,glycan array binding signal (z-score),[26],-0.664
same,glycan array binding signal (z-score),[27],-0.606
same,glycan array binding signal (z-score),[28],-0.582
same,glycan array binding signal (z-score),Gal(a1-3)GalNAc,-0.308
same,glycan array binding signal (z-score),[29],-0.308
same,glycan array binding signal (z-score),[30],1.33
same,glycan array binding signal (z-score),Gal(a1-4)Gal(b1-4)Glc,0.276
same,glycan array binding signal (z-score),Gal(a1-4)Gal(b1-4)GlcNAc,0.184
same,glycan array binding signal (z-score),[31],-0.609
same,glycan array binding signal (z-score),[32],-0.608
same,glycan array binding signal (z-score),Gal(a1-4)GlcNAc,-0.593
same,glycan array binding signal (z-score),Gal(a1-6)Glc,-0.625
